Screen size: about 350,000 compounds; about 9,900 (2.8%) were called active. The shares of active, inactive and inconclusive entries below differ from those in the screen. The call rests on the fitted dose curve; in most records, active means well fitted activation curve with a large enough effect; inconclusive means small, poorly fitted or top-dose-only effect; inactive means no such curve, though single readings can be large or run the other way. No potency is given beside an inconclusive call; the fits are too rough.
Assay: A quantitative high throughput screen for small molecules that induce DNA re-replication in MCF 10a normal breast cells. Further: nearly all actives have a fitted effect of over 50% in size.
Settings: MCF 10A DNA re-replication, Hoechst nuclear intensity, 48 h; series mostly up to 46.1 µM
Potency means the concentration at half of the fitted maximal effect; tags describe the fitted curve by direction and shape.

**Q.** For `CCOC(=O)C(C(=O)Nc1nc2ccccc2s1)C1CCCCC1` (centres undefined), which Potency is on record?
**A.** Its Potency is inconclusive [activator, partial curve, poor fit].

**Q.** Which Potency does the source give for `CCOC(=O)Nc1ccc2c(COC(=O)CNS(=O)(=O)c3cccc(Br)c3)cc(=O)oc2c1` here?
**A.** The Potency was inconclusive [activator, partial curve, poor fit].

**Q.** For `O=c1[nH][nH]cc1C=Nc1ccccc1O`, which Potency is on record?
**A.** The Potency was inconclusive [activator, single point].

**Q.** Which Potency does the source give for `CCC1(c2ccccc2)NC(=O)N(CC(=O)Nc2ccc(Cl)c(S(=O)(=O)N3CCCCC3)c2)C1=O` (centres undefined) here?
**A.** The Potency was inconclusive [activator, partial curve, poor fit].

**Q.** Which Potency does the source give for `CC(C)C[C@@H](CN1CCC[C@@H]1CN1C(=O)C(=O)NC[C@@H]1Cc1ccccc1)N1C[C@H](Cc2ccc(O)cc2)N(CC2CCCCCC2)C(=O)C1=O` here?
**A.** Its Potency is inconclusive [activator, single point].

**Q.** For `COCCN1CCN(c2c3c(nc4cc(-c5cccc(F)c5)nn24)CCC3)CC1`, which Potency is on record?
**A.** Its Potency is “inactive”.

**Q.** Which Potency does the source give for `Cc1ccc(N(C(=O)c2snc(C(N)=O)c2N)C(C(=O)NCCC(C)C)c2ccco2)cc1` (centres undefined) here?
**A.** The Potency was inconclusive [activator, single point].

**Q.** With `CCC(C)NC(=O)c1ccc2nc(Cc3ccc(OC)cc3)oc2c1` (centres undefined) as the molecule, how does the Potency read?
**A.** Its Potency is “inactive”.

**Q.** With `Cc1ccc(NC(=S)NC(NC(=O)Cc2cccc3ccccc23)C(Cl)(Cl)Cl)cc1` (centres undefined) as the molecule, how does the Potency read?
**A.** Its Potency is inconclusive [activator, single point].

**Q.** With `CC(C)c1cccc(-c2ccc3c(c2)S(=O)(=O)c2cccc(C(=O)NCc4ccco4)c2C3=O)c1` as the molecule, how does the Potency read?
**A.** Its Potency is inconclusive [activator, single point].

**Q.** With `CC(c1cccs1)N(Cc1ccco1)C(=O)Nc1ccc(Cl)c(Cl)c1` (centres undefined) as the molecule, how does the Potency read?
**A.** Its Potency is inconclusive [activator, partial curve, poor fit].

**Q.** For `C1CCN2C[C@@H]3C[C@@H](CN4CCCC[C@H]34)[C@H]2C1`, which Potency is on record?
**A.** The Potency was “inactive”.

**Q.** With `CCCCN(CCCC)C(=O)CN(C)S(=O)(=O)c1ccc2c(c1)n(C)c(=O)c(=O)n2C` as the molecule, how does the Potency read?
**A.** The Potency was “inactive”.

**Q.** For `O=C1Nc2ccc([N+](=O)[O-])cc2OC1CCN1CCN(Cc2ccccc2)CC1` (centres undefined), which Potency is on record?
**A.** Its Potency is “inactive”.

**Q.** With `Cc1cc(NC(=O)CN(C)C)c([N+](=O)[O-])cc1C` as the molecule, how does the Potency read?
**A.** The Potency was “inactive”.

**Q.** With `COc1ccc(NS(=O)(=O)c2ccc(C)c(C(=O)N(C)CC(=O)Nc3cccc(OC)c3)c2)cc1` as the molecule, how does the Potency read?
**A.** Its Potency is inconclusive [activator, partial curve, poor fit].

**Q.** Which Potency does the source give for `Cc1ccc(C)c(NC(=O)c2cnn3ccccc23)c1` here?
**A.** The Potency was “inactive”.

**Q.** For `Cc1cc(OCC(=O)NC2CCN(C)CC2)ccc1[N+](=O)[O-]`, which Potency is on record?
**A.** Its Potency is inconclusive [activator, partial curve, poor fit].

**Q.** Which Potency does the source give for `COC(=O)c1c(NS(=O)(=O)c2ccc(C)cc2)sc2c1CCC(C)C2` (centres undefined) here?
**A.** The Potency was inconclusive [activator, single point].

**Q.** Which Potency does the source give for `COc1nc(Oc2ccc(C(=O)OCC(N)=O)cc2)nc(N(C)C)n1` here?
**A.** The Potency was inconclusive [activator, full curve].

**Q.** For `CC(C)NC(=O)C(=O)NCc1ccccn1`, which Potency is on record?
**A.** Its Potency is inconclusive [activator, single point].

**Q.** For `Nc1ccccc1C(=O)Nc1cccc2ccccc12`, which Potency is on record?
**A.** The Potency was inconclusive [activator, full curve, poor fit].

**Q.** Which Potency does the source give for `O=C(c1ccc2c(Cl)c3c(nc2c1)CCCC3)N1CCN(c2ccc(F)cc2)CC1` here?
**A.** Its Potency is inconclusive [activator, single point].

**Q.** Which Potency does the source give for `COc1cc(C2c3cc4c(cc3C(OC3OC5COC(c6cccs6)OC5C(O)C3O)C3COC(=O)C23)OCO4)cc(OC)c1O` (centres undefined) here?
**A.** Its Potency is inconclusive [activator, partial curve, poor fit].

**Q.** Which Potency does the source give for `Nc1nc(SCC(=O)Nc2ccc(C(F)(F)F)cc2)[nH]c(=O)c1NC(=O)c1ccc(F)c(F)c1` here?
**A.** The Potency was “inactive”.

**Q.** For `Cc1ccc(-c2nc3ccccc3o2)cc1NC(=S)NC(=O)c1cc2ccccc2o1`, which Potency is on record?
**A.** Its Potency is “inactive”.

**Q.** Which Potency does the source give for `CC(=O)c1c(C(C)=O)c(C)n(-c2ccc(C)c(NC(=O)c3ccccc3Cl)c2)c1C` here?
**A.** Its Potency is “inactive”.

**Q.** With `Cc1ccc2cc(CN(Cc3ccco3)C(=O)NC3CCCCC3)c(=O)[nH]c2c1C` as the molecule, how does the Potency read?
**A.** Its Potency is “inactive”.

**Q.** Which Potency does the source give for `O=C(COc1ccccc1Cl)Nc1cc(Cl)ccc1O` here?
**A.** Its Potency is “inactive”.

**Q.** For `CCC1(c2ccc(F)cc2)NC(=O)N(CC(=O)N2c3ccccc3NC(=O)C2(C)C)C1=O` (centres undefined), which Potency is on record?
**A.** The Potency was inconclusive [activator, single point].

**Q.** For `COc1cc(/C=N/NC(N)=O)c(Br)cc1OCC(=O)Nc1ccccc1C`, which Potency is on record?
**A.** The Potency was inconclusive [activator, single point].

**Q.** Which Potency does the source give for `CN(C(=O)COC(=O)c1nc(Cl)ccc1Cl)c1ccccc1` here?
**A.** Its Potency is “inactive”.

**Q.** For `Cc1sc2nc(CSC(C)C(=O)Nc3cc(S(C)(=O)=O)ccc3Cl)[nH]c(=O)c2c1C` (centres undefined), which Potency is on record?
**A.** The Potency was inconclusive [activator, single point].

**Q.** With `COc1ccc(/C=N/NC(=O)c2ccccc2O)cc1Cn1nnc2ccccc21` as the molecule, how does the Potency read?
**A.** The Potency was inconclusive [activator, single point].

**Q.** With `Cc1cc(C)c(C#N)c(SCc2[nH]nc3c2C(c2ccc(F)cc2)C(C#N)=C(N)O3)n1` (centres undefined) as the molecule, how does the Potency read?
**A.** The Potency was inconclusive [activator, single point].

**Q.** For `CC(C)N=C(NS(=O)(=O)c1cccs1)c1ccccc1`, which Potency is on record?
**A.** Its Potency is “inactive”.

**Q.** With `Clc1ccc2nncn2n1` as the molecule, how does the Potency read?
**A.** Its Potency is “inactive”.

**Q.** For `COc1ccccc1C1CC(c2ccc(Br)cc2)=NN1C(=O)c1cccnc1` (centres undefined), which Potency is on record?
**A.** Its Potency is inconclusive [activator, single point].

**Q.** For `CCOc1ccc(CCNC(=O)C2CCN(S(=O)(=O)N3CCCCC3)CC2)cc1OCC`, which Potency is on record?
**A.** The Potency was inconclusive [activator, single point].

**Q.** With `CC1=CC(C)(C)NC(=S)N1c1cccc(Cl)c1` as the molecule, how does the Potency read?
**A.** Its Potency is “inactive”.

**Q.** With `O=C(C1=C[C@H](c2ccc3c(c2)OCO3)C[C@H](OCCCCO)O1)N1CCN(Cc2ccccc2)CC1` as the molecule, how does the Potency read?
**A.** Its Potency is “inactive”.

**Q.** With `CC1CCN(C(=O)COC(=O)c2cccc(S(=O)(=O)N(C)c3ccccc3)c2)CC1` as the molecule, how does the Potency read?
**A.** Its Potency is inconclusive [activator, partial curve, poor fit].

**Q.** With `O=C(O)c1ccc(SCc2ccccc2)nc1` as the molecule, how does the Potency read?
**A.** The Potency was “inactive”.

**Q.** Which Potency does the source give for `Cc1oc(-c2cc(F)ccc2F)nc1CN1CCN(c2ncnc3ccccc23)CC1` here?
**A.** Its Potency is “inactive”.

**Q.** With `O=C(CSc1nc(Nc2ccccc2)nc(N2CCOCC2)n1)N1CCCC1` as the molecule, how does the Potency read?
**A.** Its Potency is inconclusive [activator, partial curve, poor fit].

**Q.** For `CCCn1c(=O)c(C(=O)NNS(=O)(=O)c2ccc(NC(=O)OC)cc2)c(O)c2ccccc21`, which Potency is on record?
**A.** Its Potency is inconclusive [activator, single point].

**Q.** With `CCOc1ccc(NC(=O)c2nnn(CC(=O)Nc3ccccc3OC)c2N)cc1` as the molecule, how does the Potency read?
**A.** The Potency was inconclusive [activator, single point].

**Q.** Which Potency does the source give for `C/C(=N\N=C(N)N)c1ccc(Cl)cc1` here?
**A.** The Potency was inconclusive [activator, full curve, poor fit].

**Q.** With `N#C/C(=C(/O)c1cc2ccccc2o1)c1nc2ccccc2s1` as the molecule, how does the Potency read?
**A.** The Potency was active: 8.2 µM.

**Q.** With `COc1cc(OC)cc(C(=O)NCC(=O)NC(C)c2ccccc2)c1` (centres undefined) as the molecule, how does the Potency read?
**A.** Its Potency is “inactive”.

**Q.** With `CCSc1nnc(NC(=O)[C@@H](NC(=O)c2cccc(C)c2)C(C)C)s1` as the molecule, how does the Potency read?
**A.** The Potency was inconclusive [activator, partial curve, poor fit].

**Q.** Which Potency does the source give for `O=C(c1coc(=O)c(Br)c1)N1CCOCC1` here?
**A.** The Potency was inconclusive [activator, single point].

**Q.** For `CCCCc1nc(N2CCN(C(=O)c3ccco3)CC2)c(C#N)c2c1CCCC2`, which Potency is on record?
**A.** Its Potency is inconclusive [activator, single point].

**Q.** With `CC(=O)Nc1sc2c(c1C(c1ccc(Cl)cc1)N1CCOCC1)CCCC2` (centres undefined) as the molecule, how does the Potency read?
**A.** The Potency was inconclusive [activator, single point].

**Q.** Which Potency does the source give for `O=C(Cn1cncn1)NCCCc1ccccc1` here?
**A.** Its Potency is “inactive”.

**Q.** With `CC1CCCC(C)N1C(=O)COC(=O)Cc1ccc(Cl)cc1` (centres undefined) as the molecule, how does the Potency read?
**A.** The Potency was “inactive”.

**Q.** Which Potency does the source give for `O=[N+]([O-])c1cccnc1Sc1ccc(Br)cc1` here?
**A.** Its Potency is inconclusive [activator, single point].

**Q.** For `CSC1=C(C#N)C(c2ccc(Cl)cc2)C2=C(CC(C)(C)CC2=O)N1` (centres undefined), which Potency is on record?
**A.** The Potency was inconclusive [activator, single point].

**Q.** Which Potency does the source give for `CCCNC(=O)c1ccc(N2CCC3(CC2)CC(c2cccc(Br)c2)=NO3)c(N)c1` here?
**A.** Its Potency is inconclusive [activator, single point].

**Q.** For `Cn1c(N)c(C(=O)N/N=C/c2ccccc2)sc1=S`, which Potency is on record?
**A.** The Potency was active: 23.1 µM.

**Q.** Which Potency does the source give for `O=C(Nc1ccc(CN2CCOCC2)cc1)c1ccc(F)cc1` here?
**A.** Its Potency is “inactive”.

**Q.** With `Cc1cccc(/C=N/NC(=O)c2cc(Br)ccc2OCc2ccccc2)n1` as the molecule, how does the Potency read?
**A.** The Potency was inconclusive [activator, single point].

**Q.** With `Cc1ccccc1CN1CCCC(C(=O)Nc2ccc(-c3ccn[nH]3)cc2)C1` (centres undefined) as the molecule, how does the Potency read?
**A.** The Potency was inconclusive [activator, partial curve, poor fit].

**Q.** For `COc1ccccc1C(=O)Nc1ccnn1C1CCN(CC2CC=CCC2)CC1` (centres undefined), which Potency is on record?
**A.** Its Potency is “inactive”.

**Q.** With `CC(C)(C)OC(=O)COc1ccc(/C=N/NC(=O)CN2CCCCC2)cc1` as the molecule, how does the Potency read?
**A.** The Potency was “inactive”.

**Q.** For `Cn1c(NCc2cc(Br)ccc2O)nc2ccccc21`, which Potency is on record?
**A.** Its Potency is inconclusive [activator, single point].

**Q.** For `COc1cc2c(cc1OC)C(COc1cccc(C(F)(F)F)c1)NCC2` (centres undefined), which Potency is on record?
**A.** The Potency was inconclusive [activator, partial curve, poor fit].

**Q.** Which Potency does the source give for `Cc1nc(N2CCCCC2)c2c(C)c(C(=O)Nc3ccccc3C(F)(F)F)sc2n1` here?
**A.** The Potency was inconclusive [activator, single point].

**Q.** Which Potency does the source give for `S=c1nc[nH]c2nc[nH]c12` here?
**A.** The Potency was inconclusive [activator, single point].

From PubChem BioAssay AID624296 (National Center for Advancing Translational Sciences (NCATS), 2012)
